PMC4534575, “The RNA Helicase DHX34 Activates NMD by Promoting a Transition from the Surveillance to the Decay-Inducing Complex” (Cell Reports, 2014)
Results are given in words; binding and its absence hold for the method and conditions named. For some of these results: In cells and extracts the contact can be indirect. Some entries that bind do so weakly or less than the wild type. For some of these results: Tags and fused reporters may be left off the sequences shown.

T1: FLAG-DHX34 (human) (UniProt Q14147)
T1 sequence: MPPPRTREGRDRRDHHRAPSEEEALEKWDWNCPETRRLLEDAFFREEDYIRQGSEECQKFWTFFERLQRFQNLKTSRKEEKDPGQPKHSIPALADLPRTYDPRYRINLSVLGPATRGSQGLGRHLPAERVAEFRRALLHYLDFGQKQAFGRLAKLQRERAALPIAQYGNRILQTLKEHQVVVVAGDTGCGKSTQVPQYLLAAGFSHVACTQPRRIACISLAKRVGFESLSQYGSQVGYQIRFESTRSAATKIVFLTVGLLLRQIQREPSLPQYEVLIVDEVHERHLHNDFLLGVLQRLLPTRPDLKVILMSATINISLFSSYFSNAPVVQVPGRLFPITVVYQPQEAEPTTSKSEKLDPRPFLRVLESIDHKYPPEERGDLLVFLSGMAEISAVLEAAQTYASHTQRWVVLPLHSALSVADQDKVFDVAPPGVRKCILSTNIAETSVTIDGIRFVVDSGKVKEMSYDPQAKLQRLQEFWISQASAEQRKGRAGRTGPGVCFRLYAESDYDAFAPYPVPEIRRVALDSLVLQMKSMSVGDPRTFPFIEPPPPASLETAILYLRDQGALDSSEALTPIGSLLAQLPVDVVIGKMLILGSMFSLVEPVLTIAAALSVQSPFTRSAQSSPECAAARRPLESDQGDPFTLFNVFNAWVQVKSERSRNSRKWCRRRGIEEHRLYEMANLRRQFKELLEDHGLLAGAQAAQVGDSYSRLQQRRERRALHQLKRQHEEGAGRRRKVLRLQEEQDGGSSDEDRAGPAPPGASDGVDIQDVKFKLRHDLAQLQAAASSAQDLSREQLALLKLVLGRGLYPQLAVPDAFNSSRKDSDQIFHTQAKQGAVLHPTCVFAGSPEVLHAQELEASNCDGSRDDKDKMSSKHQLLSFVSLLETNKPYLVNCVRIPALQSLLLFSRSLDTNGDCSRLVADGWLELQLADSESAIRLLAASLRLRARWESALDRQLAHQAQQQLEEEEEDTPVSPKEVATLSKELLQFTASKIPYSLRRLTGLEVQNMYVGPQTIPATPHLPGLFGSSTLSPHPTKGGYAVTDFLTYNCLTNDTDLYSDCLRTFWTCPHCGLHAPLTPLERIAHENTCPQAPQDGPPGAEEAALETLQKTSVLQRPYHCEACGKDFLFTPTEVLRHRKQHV

T2: T7-DHX34 (wild-type) (human, UniProt Q14147 1-1143)
T2 construct: Human DHX34, wild type; also called T7-tagged DHX34; shRNA-resistant (R) wild-type T7-DHX34; source: HEK293T, transiently transfected, in lysate; also purified on T7 agarose beads
T2 sequence (looked up): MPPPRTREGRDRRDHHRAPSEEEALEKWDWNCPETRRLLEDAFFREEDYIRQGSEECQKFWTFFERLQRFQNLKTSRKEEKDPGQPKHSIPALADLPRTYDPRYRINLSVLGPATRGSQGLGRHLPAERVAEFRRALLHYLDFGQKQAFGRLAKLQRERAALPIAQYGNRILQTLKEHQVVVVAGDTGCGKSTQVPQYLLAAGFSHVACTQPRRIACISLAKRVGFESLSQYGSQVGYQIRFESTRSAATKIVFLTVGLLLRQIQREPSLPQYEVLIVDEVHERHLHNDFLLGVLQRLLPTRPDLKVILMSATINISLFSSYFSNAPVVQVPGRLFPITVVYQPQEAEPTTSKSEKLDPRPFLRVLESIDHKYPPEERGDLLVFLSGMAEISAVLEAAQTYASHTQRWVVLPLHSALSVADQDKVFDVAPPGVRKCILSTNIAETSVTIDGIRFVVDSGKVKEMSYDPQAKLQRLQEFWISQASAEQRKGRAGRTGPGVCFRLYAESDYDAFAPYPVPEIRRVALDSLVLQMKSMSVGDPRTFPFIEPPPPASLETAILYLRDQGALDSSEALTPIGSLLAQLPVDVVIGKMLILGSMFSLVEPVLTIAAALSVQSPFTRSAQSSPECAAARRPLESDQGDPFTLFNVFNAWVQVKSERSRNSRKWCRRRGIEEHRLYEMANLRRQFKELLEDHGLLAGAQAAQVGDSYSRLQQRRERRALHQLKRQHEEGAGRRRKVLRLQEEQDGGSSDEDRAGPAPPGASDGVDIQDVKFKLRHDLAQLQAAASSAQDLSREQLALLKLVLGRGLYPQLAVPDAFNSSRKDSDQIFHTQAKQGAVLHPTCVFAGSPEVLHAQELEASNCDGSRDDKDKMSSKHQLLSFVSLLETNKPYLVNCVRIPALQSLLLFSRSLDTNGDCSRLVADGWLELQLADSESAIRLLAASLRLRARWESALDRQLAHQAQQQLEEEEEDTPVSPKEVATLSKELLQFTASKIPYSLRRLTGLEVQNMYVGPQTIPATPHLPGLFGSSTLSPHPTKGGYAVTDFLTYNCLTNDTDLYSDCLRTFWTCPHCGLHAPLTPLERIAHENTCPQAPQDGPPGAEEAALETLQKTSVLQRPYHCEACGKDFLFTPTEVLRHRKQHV

T3: endogenous DHX34 (human (endogenous in HEK293T)) (UniProt Q14147)
T3 sequence: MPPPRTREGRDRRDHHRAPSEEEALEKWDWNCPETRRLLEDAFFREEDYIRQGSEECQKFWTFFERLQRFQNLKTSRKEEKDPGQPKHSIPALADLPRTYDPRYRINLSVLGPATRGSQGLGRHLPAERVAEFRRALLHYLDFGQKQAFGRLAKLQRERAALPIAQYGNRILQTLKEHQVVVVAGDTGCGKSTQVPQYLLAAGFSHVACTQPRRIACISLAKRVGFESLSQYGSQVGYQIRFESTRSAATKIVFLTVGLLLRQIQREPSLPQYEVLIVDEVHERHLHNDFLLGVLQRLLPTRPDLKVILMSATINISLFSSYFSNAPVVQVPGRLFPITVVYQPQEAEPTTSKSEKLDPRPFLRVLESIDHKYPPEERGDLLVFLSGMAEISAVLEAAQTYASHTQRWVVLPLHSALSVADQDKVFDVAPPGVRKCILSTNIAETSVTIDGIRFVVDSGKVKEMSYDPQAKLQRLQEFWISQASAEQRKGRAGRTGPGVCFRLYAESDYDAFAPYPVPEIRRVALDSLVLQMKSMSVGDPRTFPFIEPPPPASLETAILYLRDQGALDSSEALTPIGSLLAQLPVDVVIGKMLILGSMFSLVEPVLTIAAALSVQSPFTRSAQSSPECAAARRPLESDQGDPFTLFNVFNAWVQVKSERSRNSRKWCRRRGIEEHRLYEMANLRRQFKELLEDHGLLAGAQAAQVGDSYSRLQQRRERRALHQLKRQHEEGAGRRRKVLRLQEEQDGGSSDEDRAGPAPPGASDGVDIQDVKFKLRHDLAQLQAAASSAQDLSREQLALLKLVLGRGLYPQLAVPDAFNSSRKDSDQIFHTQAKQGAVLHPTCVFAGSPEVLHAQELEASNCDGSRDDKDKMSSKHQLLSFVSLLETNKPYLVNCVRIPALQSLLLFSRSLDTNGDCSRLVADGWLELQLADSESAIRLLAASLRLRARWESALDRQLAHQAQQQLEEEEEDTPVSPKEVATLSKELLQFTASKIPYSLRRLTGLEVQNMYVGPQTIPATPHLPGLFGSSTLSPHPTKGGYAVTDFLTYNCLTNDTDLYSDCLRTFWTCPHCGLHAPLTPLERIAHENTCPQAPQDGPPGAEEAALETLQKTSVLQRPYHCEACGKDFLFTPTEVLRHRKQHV


Columns and labels:
FLAG-DHX34 (human) = molecular target: T1, FLAG-DHX34 (human); experiment: co-IP; anti-FLAG IP of transiently transfected FLAG-DHX34 from HEK293T lysate, in the absence or presence of RNase A; endogenous partners by western blot
T7-DHX34 (wild-type) [1] = molecular target: T2, T7-DHX34 (wild-type); experiment: co-IP; IP of transiently transfected T7-DHX34 (wild-type or mutants) from HEK293T lysate, in the presence of RNase A (Figure 3B); endogenous partners by western blot
[2] = molecular target: T3, endogenous DHX34 (human (endogenous in HEK293T)); experiment: co-IP; endogenous proteins immunoprecipitated from HEK293T cells (Figure S2C; endogenous UPF1 complexes from cells depleted of DHX34 or control, Figure 5D)
T7-DHX34 (wild-type) [3] = molecular target: T2, T7-DHX34 (wild-type); experiment: pull-down; purified T7-DHX34 (wild-type or deletion constructs) on T7 agarose beads incubated with recombinant UPF1, UPF2, UPF3b or purified full-length FLAG-UPF1 in buffer D for 2 hr at 4°C; both purified

Binder	binding (FLAG-DHX34 (human))	binding (T7-DHX34 (wild-type) [1])	binding [2]	binding (T7-DHX34 (wild-type) [3])
endogenous UPF1 (protein, UniProt Q92900 1-1129) MSVEAYGPSSQTLTFLDTEEAELLGADTQGSEFEFTDFTLPSQTQTPPGGPGGPGGGGAGGPGGAGAGAAAGQLDAQVGPEGILQNGAVDDSVAKTSQLLAELNFEEDEEDTYYTKDLPIHACSYCGIHDPACVVYCNTSKKWFCNGRGNTSGSHIVNHLVRAKCKEVTLHKDGPLGETVLECYNCGCRNVFLLGFIPAKADSVVVLLCRQPCASQSSLKDINWDSSQWQPLIQDRCFLSWLVKIPSEQEQLRARQITAQQINKLEELWKENPSATLEDLEKPGVDEEPQHVLLRYEDAYQYQNIFGPLVKLEADYDKKLKESQTQDNITVRWDLGLNKKRIAYFTLPKTDSGNEDLVIIWLRDMRLMQGDEICLRYKGDLAPLWKGIGHVIKVPDNYGDEIAIELRSSVGAPVEVTHNFQVDFVWKSTSFDRMQSALKTFAVDETSVSGYIYHKLLGHEVEDVIIKCQLPKRFTAQGLPDLNHSQVYAVKTVLQRPLSLIQGPPGTGKTVTSATIVYHLARQGNGPVLVCAPSNIAVDQLTEKIHQTGLKVVRLCAKSREAIDSPVSFLALHNQIRNMDSMPELQKLQQLKDETGELSSADEKRYRALKRTAERELLMNADVICCTCVGAGDPRLAKMQFRSILIDESTQATEPECMVPVVLGAKQLILVGDHCQLGPVVMCKKAAKAGLSQSLFERLVVLGIRPIRLQVQYRMHPALSAFPSNIFYEGSLQNGVTAADRVKKGFDFQWPQPDKPMFFYVTQGQEEIASSGTSYLNRTEAANVEKITTKLLKAGAKPDQIGIITPYEGQRSYLVQYMQFSGSLHTKLYQEVEIASVDAFQGREKDFIILSCVRANEHQGIGFLNDPRRLNVALTRARYGVIIVGNPKALSKQPLWNHLLNYYKEQKVLVEGPLNNLRESLMQFSKPRKLVNTINPGARFMTTAMYDAREAIIPGSVYDRSSQGRPSSMYFQTHDQIGMISAGPSHVAAMNIPIPFNLVMPPMPPPGYFGQANGPAAGRGTPKGKTGRGGRQKNRFGLPGPSQTNLPNSQASQDVASQPFSQGALTQGYISMSQPSQMSQPGLSQPELSQDSYLGDEFKSQIDVALSQDSTYQGERAYQHGGVTGLSQY	binds	binds	binds	
recombinant UPF3b (protein, UniProt Q9BZI7 1-483) MKEEKEHRPKEKRVTLLTPAGATGSGGGTSGDSSKGEDKQDRNKEKKEALSKVVIRRLPPTLTKEQLQEHLQPMPEHDYFEFFSNDTSLYPHMYARAYINFKNQEDIILFRDRFDGYVFLDNKGQEYPAIVEFAPFQKAAKKKTKKRDTKVGTIDDDPEYRKFLESYATDNEKMTSTPETLLEEIEAKNRELIAKKTTPLLSFLKNKQRMREEKREERRRREIERKRQREEERRKWKEEEKRKRKDIEKLKKIDRIPERDKLKDEPKIKVHRFLLQAVNQKNLLKKPEKGDEKELDKREKAKKLDKENLSDERASGQSCTLPKRSDSELKDEKPKRPEDESGRDYREREREYERDQERILRERERLKRQEEERRRQKERYEKEKTFKRKEEEMKKEKDTLRDKGKKAESTESIGSSEKTEKKEEVVKRDRIRNKDRPAMQLYQPGARSRNRLCPPDDSTKSGDSAAERKQESGISHRKEGGEE				binds weakly
